In PubChem BioAssay AID463173 (ICCB-Longwood Screening Facility, Harvard Medical School, 2010):
The whole screen tested about 52,000 compounds, of which about 1,700 (3.3%) were called active. Rule as the data show it: active = survival mostly below about 52% (no sharp cut-off); inactive = mostly above about 56%. Some of the results follow.

Each compound was assayed on Wild type (assay: growth inhibition of S. aureus wild type versus tarO mutant, primary screen, teichoic acid synthesis inhibitors, RN4220, OD600 (AID 463173)). Conditions: S. aureus RN4220 wild type/DeltatarO growth, OD600, 18 h, stronger effect = lower value, screened at 18.75 µg/mL (by protocol).

Compound | survival
Cc1ccc(NC(=O)c2ccc(N(Cc3ccccc3)S(C)(=O)=O)cc2)cc1 | inactive: 94%
COc1ccc(OC)c(CCNC(=O)c2nn(C)c3c2CSc2ccccc2-3)c1 | inactive: 82%
CNC(=O)c1ccc2nc(Cc3ccccc3)oc2c1 | inactive: 32%
CCOC(=O)c1c(S(=O)(=O)N2CCN(c3cccc(C(F)(F)F)c3)CC2)c(C)n(C)c1C | inactive: 135%
CCCn1cc(S(=O)(=O)c2ccc(CC)cc2)c(=O)c2cc(F)c(N3CCN(C)CC3)cc21 | inactive: 85%
CCOc1ccc(Cn2c(CNS(=O)(=O)c3ccc(CC)cc3)nc3cccnc32)cc1 | inactive: 69%
Cc1ccc(C(=O)c2oc3ccccc3c2NC(=O)C(C)Oc2ccccc2Cl)cc1 (stereo unspecified) | inactive: 46%
COc1ccccc1C(=O)N=C1NC(=O)CC2C(=O)NCCN12 (stereo unspecified) | inactive: 96%
CCOC(=O)N1CCC(NC(=O)c2ccc3c(c2)N(Cc2ccc(Cl)cc2)C(=O)c2ccccc2S3(=O)=O)CC1 | inactive: 100%
CC(C)c1ccc2oc(-c3ccc(Cl)c(NC(=O)Cc4ccccc4)c3)nc2c1 | inactive: 120%
CCC1CCc2c(sc(NC(=O)C3c4ccccc4Oc4ccccc43)c2C(=O)OC)C1 (stereo unspecified) | inactive: 80%
CC1CCN(C(=O)c2ccc3c(c2)nnn3C)CC1 | inactive: 100%
COc1ccc(NC(=O)c2c(NCc3cccs3)sc3c2CCCCC3)c(OC)c1 | inactive: 97%
Cc1cc(Br)ccc1NC(=O)CCNS(=O)(=O)c1cccc2nonc12 | inactive: 63%
O=C(c1cnn2c(C(F)F)cc(-c3ccccc3)nc12)N1CCCC1 | inactive: 110%
O=C(Nc1ccc(Br)cc1F)c1cc2nc(-c3ccco3)cc(C(F)(F)Cl)n2n1 | inactive: 57%
O=C(Cn1cc(SCc2ccccc2F)c2ccccc21)N1CCCC1 | inactive: 82%
O=S(=O)(c1ccc(OC(F)(F)F)cc1)N1CCC(c2nc3ccccc3s2)CC1 | inactive: 85%
COc1ccc2c(c1)CC(C(=O)Nc1ccc(OC)cc1OC)CO2 (stereo unspecified) | inactive: 113%
CCOc1ccc(OCC)c(Nc2nc3ccc(C(=O)c4ccccc4)cc3n3cnnc23)c1 | inactive: 90%
COC(=O)C1CC(=O)N(c2ccccc2)C1 (stereo unspecified) | inactive: 98%
CCc1ccc(NC(=O)C2CCN(S(=O)(=O)c3c(C)noc3C)CC2)cc1 | inactive: 84%
CCC(=O)Nc1ccccc1-c1nc2ccccc2n(CC(=O)Nc2ccc(C)c(C)c2)c1=O | inactive: 83%

Compound | survival
COc1ccc(C2=NN(CC(=O)NCCc3ccccc3)C(=O)CC2)cc1 | inactive: 140%
Cn1c(=O)c2cc(C(=O)Nc3cccc(C#N)c3)sc2c2ccccc21 | inactive: 123%
COC(=O)c1ccc(NC(=O)NC(C)c2c(-n3cccc3)sc(C)c2C)cc1 (stereo unspecified) | inactive: 89%
O=C(NCc1ccccc1)c1ccc2c(c1)N(Cc1ccc(F)cc1)CCS2 | inactive: 103%
COc1ccc(CCNC(=O)CSCc2nc(-c3cccc(C)c3)oc2C)cc1OC | inactive: 74%
COc1ccc(Cl)cc1NC(=O)c1sc2nc(-c3ccc(OC)c(OC)c3)ccc2c1N | inactive: 142%
O=C(NC1CCCC1)c1ccc(CSc2nc3cccnc3n2Cc2ccccc2)cc1 | inactive: 69%
O=C(COc1ccc(Cl)cc1)Nc1ccc(-c2nc3cc(Cl)ccc3o2)c(O)c1 | inactive: 88%
COC(=O)c1sc2cccc(F)c2c1S(=O)(=O)Nc1cc(C)c(Cl)cc1OC | inactive: 85%
CCc1cccc(C)c1NC(=O)CN1C(=O)c2ccccc2Sc2ncccc21 | inactive: 88%
O=S(=O)(c1ccc(Cl)c2ccccc12)N1CCCC1 | inactive: 109%
CCCNC(=O)C1CCC(Cn2c(=O)c3sccc3n(CC(=O)N3CCCC3)c2=O)CC1 (stereo unspecified) | inactive: 93%
CCCNC(=O)CN1C(=O)c2c(c3ccccc3n2C)C1c1ccc(OC)cc1 (stereo unspecified) | inactive: 82%
CCCC(=O)Nc1sc2c(c1C(N)=O)CCC2 | inactive: 115%
COc1ccc(CNC(=O)c2cc3oc4ccccc4c3n2C)cc1OC | inactive: 64%
Cc1c(C(=O)Nc2cccc(C#N)c2)sc2nc3n(c(=O)c12)CCCCC3 | inactive: 78%
CCc1ccc(S(=O)(=O)c2nnn3c2nc(N2CCC(C(N)=O)CC2)c2cc(Cl)ccc23)cc1 | inactive: 69%
CC1CN(C(=O)N2CCC(C(=O)NCc3ccco3)CC2)c2ccccc2O1 (stereo unspecified) | inactive: 83%
O=C(Nc1nc2ccccc2n1CCOc1ccccc1Cl)c1ccccc1 | inactive: 36%
Cc1cccc(CN2C(=O)c3ccccc3Sc3ccc(C(=O)NCCCN4CCOCC4)cc32)c1 | inactive: 32%
CC1CCN(c2nc3ccccc3nc2C(F)(F)F)CC1 | inactive: 78%
Cc1ccc2ncc(C(=O)c3ccc(C)c(C)c3)c(S(=O)(=O)c3ccccc3)c2c1 | inactive: 95%
CCOc1cccc(C2c3c(oc4ccc(F)cc4c3=O)C(=O)N2c2cc(C)ccn2)c1 (stereo unspecified) | inactive: 128%

Compound | survival
O=C(CN(C(=O)c1ccc(Cl)nc1)c1ccc2c(c1)OCCO2)NCc1ccco1 | inactive: 91%
C=CCN1C(=O)C2C(C(=O)NC)C3C=CC2(O3)C1C(=O)NC1CCCCC1 (stereo unspecified) | inactive: 105%
CCN(CC)S(=O)(=O)c1nnc(NC(=O)c2ccc(C)cc2)s1 | inactive: 67%
O=C(NC1CCN(CC(=O)N2CCOCC2)CC1)C1CCCCC1 | inactive: 97%
O=C(C1CC(c2ccccc2O)=NO1)N1CCCC1 (stereo unspecified) | inactive: 108%
COc1ccccc1C1C(C(=O)Nc2ccccc2)=C(C)Nc2nc(-c3ccccc3)nn21 (stereo unspecified) | inactive: 80%
CCOc1ccccc1C(=O)N(C)c1ccccc1 | inactive: 109%
COc1ccccc1N1CCN(Cc2nc(-c3cc(OC)c(OC)c(OC)c3)no2)CC1 | inactive: 120%
CC1CCCCN1CCCNC(=O)Cn1ncc2c3ccccc3n(Cc3ccccc3)c2c1=O (stereo unspecified) | inactive: 89%
O=c1c2ccccc2nc(SCCN2CCCCC2)n1CC1CCCO1 (stereo unspecified) | inactive: 103%
CC(=O)N1CCc2cc(S(=O)(=O)NC(Cc3ccccc3)C(=O)Nc3cc(C)cc(C)c3)ccc21 (stereo unspecified) | inactive: 75%
COc1ccc(CCN2C(=O)CN(C3CCCCCC3)C(=O)C2c2ccc(Cl)cc2)cc1OC (stereo unspecified) | inactive: 55%
Cc1ccc(NC(=O)CSc2nc3n[nH]c(C)c3c(=N)n2-c2ccccc2C)cc1C | inactive: 90%
CCN(Cc1ccccc1)C(=O)c1cn(-c2cccc(OC)c2)c(=O)c2ccccc12 | inactive: 82%
Cc1ccc(Cl)cc1N1CCN(C(=O)CCc2nnc3n(C)c(=O)c4ccccc4n23)CC1 | inactive: 76%
O=C(Cn1ncc2c3ccccc3n(Cc3ccccc3)c2c1=O)NCCCN1CCCCC1 | inactive: 84%
COc1ccc(-c2cc(C(=O)Oc3ccc(C#N)cc3)no2)cc1 | inactive: 105%
COc1ccc(CNC(=O)C(CC(C)C)NS(=O)(=O)c2ccc3c(c2)CCN3C(C)=O)cc1 (stereo unspecified) | inactive: 79%
O=C(O)c1ccc(CN2CCCCC2)cc1 | inactive: 92%
C=C(C)c1cccc(C(C)(C)NC(=O)NC2CC(C)(C)NC(C)(C)C2)c1 | inactive: 108%
COc1ccc(Nc2nnc(-n3nc(C)cc3C)c3ccccc23)cc1 | inactive: 89%
O=C(NCCOCCn1c(=O)oc2ccccc21)Nc1ccc(F)cc1F | inactive: 81%
CCCc1cc(=O)[nH]c(SCc2nc(-c3ccccc3)no2)n1 | active: -2%

Compound | survival
O=S1(=O)c2ccccc2N(Cc2ccc(F)cc2)c2ccccc21 | inactive: 73%
CCOC(=O)Cn1nnnc1C(C(C)C)N(Cc1ccc(F)cc1)Cc1cc2cc3c(cc2[nH]c1=O)OCO3 (stereo unspecified) | inactive: 111%
Cc1ccc(C2=NNC(C(O)C(O)C(O)C(O)CO)S2)cc1 (stereo unspecified) | inactive: 105%
CCCSCCCNC(=O)c1sc2nc(C)cc(C)c2c1-n1cccc1 | inactive: 95%
COc1cccc(NCc2nnc3n2CCCCC3)c1 | inactive: 83%
Cc1ccc(-c2noc(-c3cccnc3N(C)Cc3ccc(Cl)cc3)n2)cc1 | inactive: 84%
Cc1cccc(NC(=O)CSc2nc3ccc(NC(=O)CCc4ccccc4)cc3s2)c1 | inactive: 91%
Cc1ccc(-c2nc(CS(=O)(=O)CC(=O)N3CCN(c4ccccc4)CC3)c(C)o2)cc1 | inactive: 90%
COc1ccc(CNC(=O)c2cc3c(=O)n(Cc4ccc(OC)cc4)ccc3nc2C)cc1 | inactive: 53%
COc1cc(Br)cc2cc(S(=O)(=O)c3ccccc3)c(=O)oc12 | inactive: 72%
CCOc1ccc(NC(=O)CN(c2ccc(C)cc2)S(=O)(=O)c2cccs2)cc1 | inactive: 80%
CCCOc1ccc(CN2C(=O)C(=O)c3cccc(C)c32)cc1 | inactive: 38%
Cc1ccc(-n2nc(C)c3c(C)c(CCC(=O)NCc4ccc(Cl)cc4)c(C)nc32)cc1 | inactive: 102%
COc1cccc(CNC(=O)c2ccc3nc(CCc4ccccc4)oc3c2)c1OC | inactive: 89%
O=C(NC12CCC(O)C(SC1)C2O)c1ccccc1 (stereo unspecified) | inactive: 119%
CCc1cccc(C)c1Nc1c(-c2ccc(N(C)C)cc2)nc2cnccn12 | inactive: 42%
CCOc1ccc(CNCCSc2nnnn2C)cc1 | inactive: 73%
CCc1ccc(C(=O)c2cn(CC(=O)Nc3cc(OC)cc(OC)c3)c3ccc(CC)cc3c2=O)cc1 | inactive: 128%
COC(=O)c1ccccc1NC(=O)Cn1c(=O)n(-c2ccc(C)cc2)c(=O)c2ccccc21 | inactive: 82%
COc1ccc(OCC(=O)Nc2cc(-c3nc4ccccc4o3)ccc2Cl)cc1 | inactive: 104%
COc1ccc(CNCC(O)c2nnn(C)n2)cc1OC (stereo unspecified) | inactive: 108%
CCOc1ccc(NC(=O)Cn2nc(CC)n3c(cc4sccc43)c2=O)cc1 | inactive: 88%
